Source: publication PMC4336329 (PLoS ONE, 2015)
Hit rate of the full screen: of about 310,000 compounds, about 2,200 (0.71%) showed an effect of 50% or more. Effects have a minus sign here. Some of the results follow.

target: human ether-à-go-go-related gene (hERG) potassium channel (human, UniProt Q12809); assay: primary screen, population patch clamp on CHO cells stably expressing hERG
Sequence (Q12809 whole entry, looked up): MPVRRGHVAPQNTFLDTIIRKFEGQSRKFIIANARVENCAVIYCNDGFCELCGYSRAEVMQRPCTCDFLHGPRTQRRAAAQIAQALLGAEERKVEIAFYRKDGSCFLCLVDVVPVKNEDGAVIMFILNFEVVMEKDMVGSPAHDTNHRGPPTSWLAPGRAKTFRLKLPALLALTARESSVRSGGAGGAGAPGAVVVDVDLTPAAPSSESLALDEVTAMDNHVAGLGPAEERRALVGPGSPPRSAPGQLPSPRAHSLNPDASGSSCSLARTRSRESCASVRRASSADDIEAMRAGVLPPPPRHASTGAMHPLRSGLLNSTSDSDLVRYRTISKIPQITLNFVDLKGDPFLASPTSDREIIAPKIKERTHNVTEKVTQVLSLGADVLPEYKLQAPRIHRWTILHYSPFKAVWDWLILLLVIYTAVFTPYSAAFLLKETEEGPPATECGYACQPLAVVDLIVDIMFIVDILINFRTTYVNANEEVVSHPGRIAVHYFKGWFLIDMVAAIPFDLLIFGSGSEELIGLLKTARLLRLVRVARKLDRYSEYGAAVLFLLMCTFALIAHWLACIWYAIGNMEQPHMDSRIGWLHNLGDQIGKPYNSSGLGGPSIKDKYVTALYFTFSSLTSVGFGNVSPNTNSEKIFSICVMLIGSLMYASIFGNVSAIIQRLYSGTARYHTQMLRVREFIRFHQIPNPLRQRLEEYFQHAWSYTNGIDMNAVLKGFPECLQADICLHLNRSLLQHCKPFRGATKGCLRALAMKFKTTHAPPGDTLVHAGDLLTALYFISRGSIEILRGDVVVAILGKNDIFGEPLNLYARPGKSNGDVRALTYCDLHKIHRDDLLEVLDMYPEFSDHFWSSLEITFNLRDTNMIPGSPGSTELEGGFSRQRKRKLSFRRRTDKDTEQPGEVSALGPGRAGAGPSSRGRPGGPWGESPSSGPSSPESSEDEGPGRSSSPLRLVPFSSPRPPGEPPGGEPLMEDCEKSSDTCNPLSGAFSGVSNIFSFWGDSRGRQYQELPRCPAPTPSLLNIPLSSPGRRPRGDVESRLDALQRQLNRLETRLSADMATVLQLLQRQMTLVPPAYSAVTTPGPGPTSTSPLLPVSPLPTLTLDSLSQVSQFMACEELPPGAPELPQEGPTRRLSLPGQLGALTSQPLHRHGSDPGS

Row | Structure (SMILES) | hERG current change (%, negative = inhibition) at 1uM [%]
1 | CCOC(=O)CC(NC(=O)Cn1nnc(-c2ccccc2F)n1)c1ccccc1Cl (stereo not drawn) | 13.9
2 | CCOc1ccc(N(CC(=O)N/N=C/c2cc(Br)c(C)o2)S(C)(=O)=O)cc1 | 6.96
3 | Cc1cccc(Nc2cc(=O)n(C)c(=O)[nH]2)c1 | 15.4
4 | CCC(=O)N1CCc2cc(S(=O)(=O)CCC(=O)NC3CCCCC3)ccc21 | 15.6
5 | O=C(NC1CCCCC1)C(c1ccc2ncccc2c1)N(Cc1ccc(F)cc1)C(=O)c1cccs1 (stereo not drawn) | 7.84
6 | O=C(COC(=O)c1ccc2ccccc2n1)Nc1cccc(S(=O)(=O)NC2=NCCCCC2)c1 | -2.47
7 | Cn1c(SCC(=O)NC2CC2)nnc1-c1ccccn1 | 4.72
8 | COc1ccc(/C=C2\SC(=O)N(CC(=O)NCCCn3ccnc3)C2=O)cc1 | -1.63
9 | CC(=O)NCCNC(=O)C1CCC(CNc2nc(=S)[nH]c3ccccc23)CC1 (stereo not drawn) | 8.05
10 | O=[N+]([O-])c1ccc(N2CCN(c3ccc([N+](=O)[O-])cc3CO)CC2)c(CO)c1 | 0.461
11 | O=C(CS(=O)(=O)Cc1ccccc1)Nc1ccccn1 | -12.7
12 | CC(c1ccco1)N(C(=O)COc1ccc(Cl)cc1)c1ccccn1 (stereo not drawn) | 3.47
13 | O=C(/C=C/c1c(Cl)cccc1Cl)NCCCn1ccnc1 | -0.936
14 | COc1ccc(C(=O)N2CCN(c3ccccc3)CC2)cc1S(=O)(=O)N1CCOCC1 | 3.28
15 | CCN1CCN(CC(=O)Nc2cc(F)ccc2C)CC1 | -7.45
16 | O=c1oc2ccccc2c(N2CCCCC2)c1CN1CCCC1 | -22.6
17 | O=C(c1cc(Cl)nc2ccccc12)N1CCN(S(=O)(=O)c2cccc(F)c2)CC1 | 7.35
18 | Cc1cc(C(=O)NC(C)Cc2ccccc2)cc(C)c1[N+](=O)[O-] (stereo not drawn) | 7.74
19 | O=c1oc(CCCO)cc2ccc(C#CC3(O)CCCCC3)cc12 | 10.5
20 | CCOC(=O)c1[nH]c(C)c(C(=O)NCc2ccc(OC)cc2)c1C | 9.64
21 | C/C(=N\O)C(=O)NCCN(C)C | 13.6
22 | O=C(NCc1csc2ccc(Cl)cc12)Nc1ccccc1 | 10.5

Row | Structure (SMILES) | hERG current change (%, negative = inhibition) at 1uM [%]
23 | Cc1ccccc1OCC(O)Cn1c(SC(C)C)nc2c1c(=O)[nH]c(=O)n2C (stereo not drawn) | -14.1
24 | COc1ccc(CNC(=O)Cn2nc([N+](=O)[O-])cc2C)cc1 | 14.4
25 | N#Cc1ccc(/C=C/C(=O)c2ccccc2)cc1 | 10.8
26 | COc1ccc(NS(=O)(=O)c2cc(NC(=O)[C@@H](NC(=O)c3ccccc3)C(C)C)ccc2C)cc1 | 1.28
27 | CCC(=O)N1c2ccc(S(=O)(=O)CCC(=O)N3CCC4(CC3)OCCO4)cc2CC1C (stereo not drawn) | 5.78
28 | Cc1ccc(S(=O)(=O)N2CCC(C(=O)OC(C)C(=O)NCc3ccccc3)CC2)cc1C (stereo not drawn) | 7.82
29 | CCOC(=O)c1sc2nc(SCC#N)n(CC3CCCO3)c(=O)c2c1C (stereo not drawn) | -1.57
30 | COc1cc(C)c(C)cc1S(=O)(=O)n1c(C)nc2ccccc21 | 5.21
31 | CCOC(=O)c1ccc(NC(=S)NCCc2ccccc2F)cc1 | 1.98
32 | O=C(c1c(F)cccc1Cl)N1CCN(S(=O)(=O)c2ccc3c(c2)OCCCO3)CC1 | 11.2
33 | O=C(CCSc1nnc(-c2ccncc2)o1)Nc1cccc2ccccc12 | -1.56
34 | CC12CN3CC(C)(CN(C1)C3c1ccc3c(c1)OCO3)C2O (stereo not drawn) | 12.8
35 | O=C(Nc1ccc(NC(=O)C2CC2)nc1)c1cccnc1 | 8.41
36 | COCCn1c(SCc2ccc(F)cc2)nc2ccccc2c1=O | 10.8
37 | O=C(Nc1ccc(-c2nc3ccccc3s2)c(OC(=O)c2ccccc2)c1)c1ccccc1 | 11.4
38 | Cc1cc(C)cc(N(CC(=O)NC2CCCC2)C(=O)CCC(=O)Nc2cc(C)on2)c1 | 7.6
39 | CCOc1ccc(NC(=O)c2ccc(NC(=O)c3cn4c5c(c(N6CCN(C)CC6)c(F)cc5c3=O)OCC4C)cc2)cc1 (stereo not drawn) | -1.51
40 | COCCCNC(=S)N1CCN(c2ccccc2)CC1 | 18.3
41 | CCOC(=O)CCc1c(C)c2ccc(OCc3nn[nH]n3)c(C)c2oc1=O | 11.7
42 | O=C(NCc1n[nH]c(=S)n1-c1cccc(Cl)c1)c1ccc(S(=O)(=O)N2CCCC2)cc1 | 3.82
43 | S=c1[nH]nc(C2CCCCC2)n1/N=C/c1ccncc1 | 8.26
44 | Cc1cc(=O)n2c(n1)OC(CO)C2 (stereo not drawn) | 12.1

Row | Structure (SMILES) | hERG current change (%, negative = inhibition) at 1uM [%]
45 | Cc1ccc(CNC(=O)c2ccccc2NC(=O)CN2CC(C)OC(C)C2)cc1 (stereo not drawn) | 4.37
46 | C=CCOC(=O)c1sc(NC(=O)c2ccco2)nc1C | 11.7
47 | CCCc1nc2ccccc2[nH]1 | 17
48 | O=c1c2ccccc2nc(/C=C/c2cccc([N+](=O)[O-])c2)n1CCO | -4.97
49 | COC(=O)Cc1ccc(NC(=O)c2ccc(C)c(C)c2)cc1 | 15
50 | CCOc1ccccc1Cn1c(=O)sc2ccccc21 | 13.4
51 | CCN(C(=O)c1cnc(NC(C)C)cc1C(F)(F)F)c1ccc(Cl)cc1Cl | 11.2
52 | CCc1nccn1CCC(=O)N1CCCC(N2CCN(c3cccc(Cl)c3)CC2)C1 (stereo not drawn) | -3.15
53 | COc1ccc(NC(=O)CSc2nc3c(c(=O)n2-c2ccc(C)cc2)SCC3)c(OC)c1 | 4.24
54 | CC(=O)NNc1ncnc2c1cnn2-c1ccc(C)c(C)c1 | 13.6
55 | COc1cccc(CNc2nccs2)c1O | 12.9
56 | O=C(NCc1ccccc1)c1ccc(NC2=NC3CS(=O)(=O)CC3S2)cc1 (stereo not drawn) | 7.01
57 | CC1Sc2ccc(S(=O)(=O)CCC(=O)NCc3ccccc3Cl)cc2NC1=O (stereo not drawn) | 15
58 | CSc1nn(-c2ccc(C(=O)OC(C(=O)NC(N)=O)C(C)C)cc2)c(=S)s1 (stereo not drawn) | 9.82
59 | COc1ccccc1N1CCN(Cc2c(F)cccc2F)CC1 | -16
60 | CC(C)c1ccc(C2(C)NC(=O)N(CC(=O)N3CCN(C(=O)c4cccs4)CC3)C2=O)cc1 (stereo not drawn) | 3.27
61 | Cc1cc(C)nc(N2CCC(C(=O)NNC(=O)c3ccccc3)CC2)n1 | 14.3
62 | CCN(C(=O)CN(C)Cc1c(F)cccc1Cl)c1c(N)n(Cc2ccccc2)c(=O)[nH]c1=O | 12.8
63 | O=C(COC(=O)CCCN1C(=O)c2cccc3cccc(c23)C1=O)Nc1cccc(Br)c1 | 10.8
64 | O=C(CSc1nnc(COc2cccc3cccnc23)o1)N1CCN(C(=O)c2ccco2)CC1 | 11.2
65 | Cc1ccccc1C(=O)Nc1ccccc1C(=O)NC1CC1 | 11.6
66 | C/C(=N\NC(=S)NC(C)C)c1ccc(Cl)s1 | 10.6

Row | Structure (SMILES) | hERG current change (%, negative = inhibition) at 1uM [%]
67 | COc1ccc(NC2CCCN(C(=O)CCN3CCCO3)C2)cc1 (stereo not drawn) | 9.49
68 | COc1ccc(OC)c(CCNC(=O)c2ccccc2NC(=O)C2=C(C)OCCS2)c1 | 8.14
69 | CCOP(=O)(OCC)C(Nc1ccccc1)c1cc(OC)ccc1OC (stereo not drawn) | 10.8
70 | CCOC(=O)c1c(NC(=O)c2cnn3c2NC(c2cccc(OC)c2)CC3C(F)(F)F)sc2c1CCCC2 (stereo not drawn) | 0.314
71 | CCOc1ccc(Nc2nc(N)c([N+](=O)[O-])c(N3CCOCC3)n2)cc1 | 14.4
72 | CCOC(=O)N1CCN(Cc2nc3ccc([N+](=O)[O-])cc3c(=O)n2-c2ccccc2F)CC1 | 0.531
73 | Cc1ccc(NC(=O)CN2CCC(NC(=O)c3ccccc3F)CC2)cc1C.Cl | -2.46
74 | COc1ccccc1N1CCN(Cc2nc(-c3ccc(F)cc3)oc2C)CC1 | -16.9
75 | CCOCc1cnc(C)nc1NCC(=O)c1c(C)[nH]c2ccc(OC)cc12.I | 4.15
76 | Cn1c(NCc2ccccc2)nc2c1c(=O)n(Cc1ccccc1)c(=O)n2C | 5
77 | CC(OC(=O)CNC(=O)c1sc2ccccc2c1Cl)c1ccccc1 (stereo not drawn) | 18.5
78 | CC(C)Cn1c(CCCNC(=O)c2ccco2)nc2ccccc21 | 9.49
79 | CNc1c([N+](=O)[O-])cnn1-c1ccc(F)cc1 | 8.77
80 | O=C1N(Cc2cccc(Cl)c2)C[C@@H]2C[C@@H](c3cccc4ncccc34)N3CCC[C@@]123 | -2.07
81 | CC(C)=CC(=O)N1CCCC(N2CCN(c3ccccc3C)CC2)C1 (stereo not drawn) | 3.56
82 | COc1ccc(NC(=O)C(c2ccc(OC)cc2)N(C)C(=O)CNC(C)=O)cc1 (stereo not drawn) | 8.42
83 | CCOC(=O)c1sc(NC(=O)Cn2nnc3sc4c(c3c2=O)CCC(C(C)(C)C)C4)nc1C (stereo not drawn) | 2.34
84 | O=C(OCCOCCN=C1NS(=O)(=O)c2ccccc21)c1ccccc1 | 15.9
85 | CC1CCN(CCOCCOc2ccccc2Br)CC1 | -4.7
86 | Cc1cccc(/C=C2/Sc3ccc(C(=O)NCCN4CCCC4)cc3NC2=O)c1 | 8.58
87 | COc1ccc(CNC(=O)N2CCN(c3cccc(C)c3C)CC2)cc1OC | 12
